According to paper PMC13083723 (Patterns, 2026):
Among all 5,400 compounds or so, about 190 (3.5%) showed an effect of 50% or more. This is one part of the list. Starred links: 1 amine or outer side, 2 acyl side, 3 side chain; linkers in the order of their positions; H or OH if unused. Positions of bridges follow the written chain, without caps; N, C: chain ends. Non-standard residues stand in square brackets, D forms with d. Residues, ends and D or L forms follow the SMILES beside them. Chains are numbered I, II in the order given. Actinocin(9to1) = Cc1c2oc3c(C)ccc(C(=O)[*:1])c3nc-2c(C(=O)[*:2])c(N)c1=O; NMeV = CN[C@H](C(=O)O)C(C)C; Sar = CNCC(=O)O

What follows are molecules tested on Vero-E6 (assay: primary screen, phospholipidosis by LipidTOX staining; higher = more effect of the substance). Conditions: 10 µM.
Method in brief: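 Drug-induced phospholipidosis detected with HCS LipidTOX Red reagent in Vero-E6 cells. Compounds tested at 10 μM, with amiodarone (10 μM) as positive control and DMSO (0.1 v/v %) as vehicle.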

First: Cc1cccc(C)c1NC(=O)CN1CCN(CCCC(c2ccc(F)cc2)c2ccc(F)cc2)CC1
Second: Fc1ccc(C(OCCN2CCN(C/C=C/c3ccccc3)CC2)c2ccc(F)cc2)cc1
The result_ITMP of the first is higher: 52.6% for the first, 20.6% for the second.

Going from `Cc1cc(Nc2cc(CN3CCOCC3)c3nc(C)c(Cc4ccc(Cl)cc4F)n3n2)[nH]n1` to `CCN1CCN(c2ccc(Nc3cc(N(C)C(=O)Nc4c(Cl)c(OC)cc(OC)c4Cl)ncn3)cc2)CC1`, the result_ITMP falls from 13% to 3.12%.

First: C=C1CC[C@H](O)C/C1=C/C=C1\CCC[C@]2(C)C([C@H](C)/C=C/[C@H](C)C(C)C)CC[C@@H]12 (stereo partly shown)
Second: CC1CCC(O)C/C1=C\C=C1/CCCC2(C)C1CCC2C(C)/C=C/C(C)C(C)C (stereo not shown)
The result_ITMP of the first is lower: -2.68% for the first, 0.34% for the second.

Going from `CCNCCCNCCCCNCCCNCC` to `CCCCCS(=O)(=O)CCCCCCCCCCn1c(-c2ccc(O)cc2)c(C)c2cc(O)ccc21`, the result_ITMP falls from -2.17% to -3.27%.

Compared with `CC(CCCCC(=O)Nc1ccc(C(F)(F)F)cc1)NCCc1c[nH]cn1` (stereo not shown), `Cn1nc(-c2ccc(C(F)(F)F)cc2)nc2c(=O)n(C)c(=O)nc1-2` is higher in result_ITMP: -3.87% for the first, 1.4% for the second.

First: CN(C)C(=O)c1cc2cnc(Nc3ccc(N4CCNCC4)cn3)nc2n1C1CCCC1
Second: CO[C@@H]1[C@H](O)[C@@H](CO)O[C@H]1n1cnc2c(NC3CCCCC3)ncnc21
The result_ITMP of the first is higher: 16.3% for the first, -1.44% for the second.

Compared with `CC/C=C(\C(=O)N[C@@H]1C(=O)N2C(C(=O)OCOC(=O)C(C)(C)C)=C(COC(N)=O)CS[C@H]12)c1csc(N)n1`, `NC(=O)c1cc[n+](CC2=C(C(=O)[O-])N3C(=O)[C@@H](NC(=O)Cc4cccs4)[C@H]3SC2)cc1` is lower in result_ITMP: -4.26% for the first, -5.69% for the second.

Going from `C=CC(C)(O)CCC=C(C)C` (stereo not shown) to `Cc1cccc(C)c1NC(=O)C[N+](C)(C)C`, the result_ITMP rises from -8.91% to 1.04%.

Going from `CC[C@@]1(O)C(=O)OCc2c1cc1n(c2=O)Cc2cc3c(CN(C)C)c(O)ccc3nc2-1` to `COc1ccc2cc3[n+](cc2c1OC)CCc1cc2c(cc1-3)OCO2`, the result_ITMP rises from 0.11% to 0.6%.

Compared with `Nc1nnc(-c2cccc(Cl)c2Cl)c(N)n1`, `Clc1cccc(-n2nnnc2NCc2ccccc2Oc2ccccn2)c1Cl` is higher in result_ITMP: -2.56% for the first, -2.05% for the second.

Compared with `CCOC(=O)N[C@@H]1CC[C@@H]2[C@@H](C1)C[C@H]1C(=O)O[C@H](C)[C@H]1[C@H]2/C=C/c1ccc(-c2cccc(F)c2)cn1`, `CCCCOc1ccc(-c2cncc(C(=O)NCc3cccnc3N3CCOCC3)c2)cc1Cl` is higher in result_ITMP: -3.79% for the first, 3.79% for the second.

Going from `C[C@H](N/C(=N\C#N)Nc1cccc2ncccc12)c1ccccc1` to `N#Cc1cccc(C(=O)Nc2cc(-c3ccccc3)nn2-c2ccccc2)c1`, the result_ITMP rises from -7.08% to 13%.

First: NC(C(=O)O)c1ccc(C(=O)O)c(C(=O)O)c1 (racemic)
Second: CC1=C(C(=O)O)N2C(=O)[C@@H](NC(=O)[C@H](N)c3ccccc3)[C@H]2SC1
The result_ITMP of the first is lower: -2.14% for the first, 0.57% for the second.

First: CN1C(=O)N(c2cc(Cl)cc(Cl)c2)C(=O)[C@]12CN(Cc1cc(C(=O)O)cs1)C[C@H]2c1ccc(C#N)cc1
Second: O=C(CCCN1CCC2(CC1)C(=O)NCN2c1ccccc1)c1ccc(F)cc1
The result_ITMP of the first is lower: 0.21% for the first, 20.3% for the second.

Going from `Clc1cc(Cl)c(OCC#CI)cc1Cl` to `Cc1ccc(Cl)c(OCC(O)CNC(C)C)c1` (stereo not shown), the result_ITMP rises from 7.92% to 21.7%.

First: Nc1nc(=O)[nH]cc1F
Second: C[C@H](O)[C@H](O)[C@H]1CNc2[nH]c(N)nc(=O)c2N1
The result_ITMP of the first is lower: -1.94% for the first, -0.69% for the second.

Compared with `Oc1cc(O)cc(/C=C/c2ccc(O)c(O)c2)c1`, `CC(Cc1ccc(O)c(O)c1)C(C)Cc1ccc(O)c(O)c1` (stereo not shown) is lower in result_ITMP: -1.23% for the first, -7.08% for the second.

First: O=C(NC1CC1)c1cc(-c2cccs2)on1
Second: CN1CC(=O)N=C1NC(=O)Nc1cccc(Cl)c1
The result_ITMP of the first is lower: -4.98% for the first, -1.76% for the second.

Going from `OC[C@@H](O)[C@@H](O)[C@H](O)[C@@H](O)CO` to `OCC(O)[C@H]1O[C@@H]2O[C@H](C(Cl)(Cl)Cl)O[C@@H]2[C@H]1O` (stereo partly shown), the result_ITMP falls from 1.05% to -13.7%.

Going from `COc1cc2c(cc1Cc1cccc(Cl)c1F)c(=O)c(C(=O)O)cn2[C@H](CO)C(C)C` to `Nc1c(CC(=O)[O-])cccc1C(=O)c1ccc(Br)cc1`, the result_ITMP rises from -4.09% to 0.95%.

Going from `Nc1ncnc2c1ncn2[C@H]1CC[C@@H](CO)O1` to `Nc1ncnc2c1ncn2[C@@H]1O[C@H](CO)C[C@H]1O`, the result_ITMP falls from -3.8% to -8.96%.

Compared with `Nc1ncc(Cc2ccc(Br)cc2)s1`, `CCOc1ccc(S(=O)(=O)[O-])c2cccnc12` is lower in result_ITMP: -1.9% for the first, -2.55% for the second.

Going from `Cc1ccc2c(c1)[C@]13CCCC[C@@H]1[C@H](C2)N(C)CC3` to `COc1cccc([C@]2(O)CCCC[C@H]2CN(C)C)c1`, the result_ITMP falls from 3.88% to 1.12%.

First: CC(C)n1c(=O)n(C(=O)NC2CC3CCC(C2)N3C)c2ccccc21 (stereo not shown)
Second: Cc1nccn1CC1CCc2c(c3ccccc3n2C)C1=O (stereo not shown)
The result_ITMP of the first is higher: 15.5% for the first, -1.72% for the second.

First: N#CCC(=O)c1ccccc1
Second: NS(=O)(=O)C#Cc1ccccc1
The result_ITMP of the first is higher: -3.41% for the first, -6.54% for the second.

Going from `NC(=O)c1cnc2[nH]ccc2c1N[C@H]1C2CC3CC1C[C@](O)(C3)C2` to `O[C@H]1CC[C@H](Nc2nc(-c3ccccc3)nc3[nH]ccc23)CC1`, the result_ITMP falls from -1.38% to -6.29%.

Compared with `CC(=O)NC[C@H]1CN(c2ccc(N3CCOCC3)c(F)c2)C(=O)O1`, `O=C1c2cc(Cl)ccc2OC2CCON12` (stereo not shown) is higher in result_ITMP: -4.92% for the first, -3.01% for the second.

Compared with `CCCCC1(C2CCCC2)Cc2cc(OCCCC(=O)O)c(Cl)c(Cl)c2C1=O` (stereo not shown), `O=C1CC2(CCCC2)CC(=O)N1CCCCNCC1COc2ccccc2O1` (stereo not shown) is higher in result_ITMP: -3.19% for the first, -0.42% for the second.

Going from `O=c1nc[nH]c2c([C@@H]3N[C@H](CO)[C@@H](O)[C@H]3O)c[nH]c12` to `Nc1nc(Nc2ccccc2)nc2c1ncn2[C@@H]1O[C@H](CO)[C@@H](O)[C@H]1O`, the result_ITMP falls from -0.15% to -1.76%.

Compared with `Cc1c2oc3c(C)ccc(C(=O)N[C@@H]4C(=O)N[C@H](C(C)C)C(=O)N5CCC[C@H]5C(=O)N(C)CC(=O)N(C)[C@@H](C(C)C)C(=O)O[C@@H]4C)c3nc-2c(C(=O)N[C@@H]2C(=O)N[C@H](C(C)C)C(=O)N3CCC[C@H]3C(=O)N(C)CC(=O)N(C)[C@@H](C(C)C)C(=O)O[C@@H]2C)c(N)c1=O` (I: TVP[Sar][NMeV] / II: TVP[Sar][NMeV]; ester I:1-I:C, II:1-II:C; linker I:N-II:N via Actinocin(9to1)), `COc1cc2cc(c1Cl)N(C)C(=O)C[C@H](OC(=O)C(C)C)[C@]1(C)O[C@H]1[C@H](C)[C@@H]1C[C@@](O)(NC(=O)O1)[C@H](OC)/C=C/C=C(\C)C2` is lower in result_ITMP: 10.9% for the first, -0.8% for the second.

Going from `CC(C)Cc1ccc([C@@H](C)C(=O)NS(C)(=O)=O)cc1` to `C[C@@H](C(=O)O)c1ccc(-c2ccccc2)c(F)c1`, the result_ITMP rises from -1.78% to -1.34%.

First: COc1cc(CN2CCN(c3ccc(F)cc3)CC2)cc(OC)c1OC
Second: COc1ccccc1N1CCN(CC(O)COc2cc(OC)c(OC)c(OC)c2)CC1 (stereo not shown)
The result_ITMP of the first is lower: -5.69% for the first, 0.17% for the second.

First: COc1cc(C2Oc3ccc(C4Oc5cc(O)cc(O)c5C(=O)C4O)cc3OC2CO)ccc1O (stereo not shown)
Second: c1ccc2c(c1)OC[C@H](CNCCCOc1ccc3c(c1)OCO3)O2
The result_ITMP of the first is lower: -1.08% for the first, 2.27% for the second.

Going from `C=C1CC[C@@]2(O)[C@H]3Cc4ccc(O)c5c4[C@@]2(CCN3CC2CC2)[C@H]1O5` to `O=C(OCCN1CCCCC1)c1c[nH]c2ccccc12`, the result_ITMP rises from -4.83% to 2.28%.

First: O=S(=O)(c1cccc2c(Cl)cccc12)N1CCCNCC1
Second: N[C@@H](CCNCc1ccc(Cl)cc1)C(=O)N1CCCCC1
The result_ITMP of the first is lower: 47.2% for the first, 48.5% for the second.

Compared with `CC1(C)CC(=O)C(C2C3=C(CC(C)(C)CC3=O)Oc3ccccc32)C(=O)C1` (stereo not shown), `O=C(NC(=O)c1c(F)cccc1Cl)NC1c2ccccc2-c2ccccc21` is lower in result_ITMP: -1.83% for the first, -1.9% for the second.

Compared with `CCOCCn1c(N2CCCN(C)CC2)nc2ccccc21`, `Cc1ccc(C(=O)C(C)CN2CCCCC2)cc1` (stereo not shown) is lower in result_ITMP: 3.32% for the first, -4.52% for the second.

Going from `CC[C@]12C=CCN3CC[C@@]4(c5cc([C@@]6(C(=O)OC)C[C@H]7C[C@@H](C(C)(F)F)CN(Cc8c6[nH]c6ccccc86)C7)c(OC)cc5N(C)[C@H]4[C@@](O)(C(=O)OC)[C@@H]1OC(C)=O)[C@@H]32` to `Nc1ccccc1NC(=O)c1ccc(CNc2nccc(-c3cccnc3)n2)cc1`, the result_ITMP falls from 49.7% to 24.7%.

Going from `CC[C@H](C)C(=O)O[C@H]1C[C@H](O)C=C2C=C[C@H](C)[C@H](CC[C@@H](O)C[C@@H](O)CC(=O)O)[C@H]21` to `O=C(CCCCC(=O)Nc1c(I)cc(I)c(C(=O)O)c1I)Nc1c(I)cc(I)c(C(=O)O)c1I`, the result_ITMP falls from 3.18% to -4.37%.

Compared with `O=[N+]([O-])c1ccc(Cl)c([N+](=O)[O-])c1`, `Cc1ccc(S(=O)(=O)/C=C/C#N)cc1` is lower in result_ITMP: 18.8% for the first, -2.85% for the second.

Compared with `O=[N+]([O-])O[C@H]1CO[C@H]2[C@@H]1OC[C@H]2O[N+](=O)[O-]`, `CC(C)C1C2CCC(C2)C1N` (stereo not shown) is higher in result_ITMP: -2.72% for the first, 1.94% for the second.

Going from `N=C(N)Nc1ccc(Cl)cc1` to `C[C@@H](Oc1cc(-c2cnn(C3CCNCC3)c2)cnc1N)c1c(Cl)ccc(F)c1Cl`, the result_ITMP rises from -3.38% to 75%.

Compared with `O=S1(=O)CCN(CN2CCS(=O)(=O)NC2)CN1`, `Cc1cc(Nc2nc(N[C@@H](C)c3ncc(F)cn3)ncc2Cl)n[nH]1` is higher in result_ITMP: -1.83% for the first, -1.15% for the second.

First: Cc1nc(C)c(C)nc1C
Second: CC(C)(O)CNc1nc(Nc2ccnc(C(F)(F)F)c2)nc(-c2cccc(C(F)(F)F)n2)n1
The result_ITMP of the first is higher: -1.64% for the first, -2.26% for the second.
